Assay results from the RNAGym collection of RNA variant scans (doi:10.1073/pnas.2313332121).
This sample is rich in variants without activity.

B1: TPR 5TU (parent)
chain: GGAUCUUCUCGAUCUAACAAAAAAGACAAAUCUGCCACAAAGCUUGAGAGCAUCUUCGGAUGCAGAGGCGGCAGCCUUCGGUGGCGCGAUAGCGCCAACGUUCUCAACUAUGACACGCAAAACGCGUGCUCCGUUGAAUGGAGUUUAUCAUG

Variants of: B1
Assay: polymerase ribozyme fitness, log enrichment relative to wild type (log ratio); higher = more active; in vitro selection for triplet polymerase activity
How it was run: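 Libraries of mutants in each subunit of a heterodimeric triplet polymerase ribozyme were generated by PCR and transcribed. In triplicate, each went through one in vitro selection round: annealing with biotinylated primer, partner subunit and triplets; frozen incubation at −7 °C; gel excision of extended constructs; streptavidin-bead capture; RT-PCR. Fitness, taken from Illumina sequencing of input and output libraries, is the logarithm of a genotype's enrichment over wild-type enrichment, averaged across replicates with inverse-variance weights. The logarithm is base 2, and genotypes needed ≥10 input reads and ≥1 read per output to be kept.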

Row | Variant | polymerase ribozyme fitness (log ratio)
1 | A19G A20U A28U U53G G62U G71A G80A G92U A98G | ≤ -4.2
2 | A19U U56A A60G U104G G152A | -2.82
3 | A19C G50U C93U C132U A138G U151A | ≤ -4.2
4 | A19C U45A G67A | ≤ -4.2
5 | A19U C32G U55G U56A G92A U145A C149U | ≤ -4.2
6 | C18G A49C G67U G84U A107U | ≤ -4.2
7 | A19C A49C A73U U77G C96G U139A G143A | ≤ -4.2
8 | C18G A64C U77C A91G | ≤ -4.2
9 | A19G G50A G67A A91U C93A | ≤ -4.2
10 | A20C C27U G81A G86A C99G | -2.96
11 | A19C A20G A24G U55G G67C C69U G83U A97U G140U | ≤ -4.2
12 | A19G U33C A41C A91U C93A A97C | ≤ -4.2
13 | C18G C79G | -3.9
14 | A19C A60G G83C C95G A110U G128U U135C U146G | ≤ -4.2
15 | A19G G42U G50U A52U C75U G88U G92C G143A | ≤ -4.2
16 | A19G C27G C85A C116U | ≤ -4.2
17 | A20C A23U A29U G92A A110U U139G A142G U144G | ≤ -4.2
18 | A20C G65U U90G C93U C129A | ≤ -4.2
19 | A19G G50A G83C G86U C96U | ≤ -4.2
20 | C18G C93U G143U | -3.08
21 | A20C G83C C118G U130G | ≤ -4.2

Row | Variant | polymerase ribozyme fitness (log ratio)
22 | A20C A24C G48A G141A | ≤ -4.2
23 | A19C G34A C57U G86C C96U A98U | -3.16
24 | A19G G84C A115U A121G | -3.97
25 | C18U C57U G88A C93U | ≤ -4.2
26 | C18U G42C U55A A64G C79G A89U C93G | ≤ -4.2
27 | A19G G48A C54G G81U G94U | ≤ -4.2
28 | A19U G42A G86A | ≤ -4.2
29 | A19C U31A A41C A64C C93A C114G G126A | ≤ -4.2
30 | A20C C36A G71A G86C A91U C95A A97G G124A | ≤ -4.2
31 | A20C A39C C79G A106G G124U | ≤ -4.2
32 | C18G G62U A64G U139A A142U | ≤ -4.2
33 | A19C A29U U53G C85G C114G U146C | ≤ -4.2
34 | A19G A26C U144G | -2.17
35 | A19G C27A A28C A39C G88C | ≤ -4.2
36 | A20C C118U | -0.906
37 | A20C G25C G34U C54A A91G A119U A122U G124U C125G | ≤ -4.2
38 | A19U C38A C54U C85A C108A | ≤ -4.2
39 | A19G G46U G48C G62A G94U A107G | ≤ -4.2
40 | C18U A40U G143C | -2.98
41 | C18G A20G G25C U33G G68U C96U A98G | ≤ -4.2
42 | C18G C38A C69G C87U G143U U145A | -3.47

Row | Variant | polymerase ribozyme fitness (log ratio)
43 | A19U C69G C72U G84A | -3.03
44 | A19G C32G G68U | ≤ -4.2
45 | A19U G84C | -2.08
46 | A19U U33A G84A G92C G94C | ≤ -4.2
47 | C18G A29G A41C G65C C75A C79A C96A | ≤ -4.2
48 | A19U G58U G65A G92A | ≤ -4.2
49 | A20C G34A A47G U104G U130G A150G | ≤ -4.2
50 | A19U A47C U55G C87U G92U U101C | -2.81
51 | A19G A64C U78G A91U | ≤ -4.2
52 | C18U A47U A64C G92U A115G C132U A137G | ≤ -4.2
53 | C18G A30U G42U C43U G59C A91G U102C | ≤ -4.2
54 | A19U A24G G42C U134A | ≤ -4.2
55 | A19C G46A G62A G94A C95A | ≤ -4.2
56 | C18G A41C C54G G62A A107G U134C | ≤ -4.2
57 | A19G C35A U44A A47C C69A | ≤ -4.2
58 | C18U A37U U55A G86A | -3.67
59 | A19U C85A A113U | -3.44
60 | C18U A23U A91U C95G U104C C118A A147U | ≤ -4.2
61 | C18U G50A U53A U78C G86U A115G G117A U134C | ≤ -4.2
62 | A20C A37U C54A G58A C87A U135A | ≤ -4.2
63 | C18U G83A G112U | ≤ -4.2

Row | Variant | polymerase ribozyme fitness (log ratio)
64 | A20C A39G A52C G67A U109G G140C U148C | ≤ -4.2
65 | C18G C27U U82G G88A | ≤ -4.2
66 | A20C A66C C95U | ≤ -4.2
67 | A19U A23C A40U U109G U144C | ≤ -4.2
68 | A19G A49G C57U C93A G117C | ≤ -4.2
69 | C18U G59U A60U U101G U151G | ≤ -4.2
70 | C18U C54A A64G G83C A119U A147C | ≤ -4.2
71 | C18G U44A G92U C99A U101A | ≤ -4.2
72 | A19G A37C G68C G83C C96U G126C U151G | ≤ -4.2
73 | C18G A41C A66C C85A G117C U144A | ≤ -4.2
74 | A20C A40C U56A G92U | -0.349
75 | A19U A22G A39C C79G | ≤ -4.2
76 | A19G U55A | -0.576
77 | A20C C32A A52G A91U G94A C99U A147U G152U | -3.97
78 | A19G C87G G92A C149U | ≤ -4.2
79 | C18U G65C U127G G133U | ≤ -4.2
80 | A19G C57G G84U | -2.3
81 | A20C A40G A41U C87U C108U | ≤ -4.2
82 | C18A A26U G84A A138G | ≤ -4.2
83 | A19U U55G C87A U102G U145G | ≤ -4.2
